According to publication PMC6919601, “Identification of Plasmodium dipeptidyl aminopeptidase allosteric inhibitors by high throughput screening” (PLoS ONE, 2019):
Where “and” joins values, the source holds several entries; their conditions need not be identical. Identical values can stand only once. In all, about 110,000 compounds went through this assay and about 230 (0.21%) showed an effect of 50% or more. Some of the results follow.

Molecular target: DPAP1 (Plasmodium falciparum, UniProt Q8IIJ9)
Experiment: primary screen, percent inhibition; read by cleavage of a fluorogenic dipeptide substrate; higher = more effect of the substance
Design: species or system P. falciparum D10 trophozoite lysates; single well
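Note: 30 min substrate incubation versus DMSO and 10 µM JCP410 controls.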

Chain of DPAP1 (Q8IIJ9 whole entry, looked up): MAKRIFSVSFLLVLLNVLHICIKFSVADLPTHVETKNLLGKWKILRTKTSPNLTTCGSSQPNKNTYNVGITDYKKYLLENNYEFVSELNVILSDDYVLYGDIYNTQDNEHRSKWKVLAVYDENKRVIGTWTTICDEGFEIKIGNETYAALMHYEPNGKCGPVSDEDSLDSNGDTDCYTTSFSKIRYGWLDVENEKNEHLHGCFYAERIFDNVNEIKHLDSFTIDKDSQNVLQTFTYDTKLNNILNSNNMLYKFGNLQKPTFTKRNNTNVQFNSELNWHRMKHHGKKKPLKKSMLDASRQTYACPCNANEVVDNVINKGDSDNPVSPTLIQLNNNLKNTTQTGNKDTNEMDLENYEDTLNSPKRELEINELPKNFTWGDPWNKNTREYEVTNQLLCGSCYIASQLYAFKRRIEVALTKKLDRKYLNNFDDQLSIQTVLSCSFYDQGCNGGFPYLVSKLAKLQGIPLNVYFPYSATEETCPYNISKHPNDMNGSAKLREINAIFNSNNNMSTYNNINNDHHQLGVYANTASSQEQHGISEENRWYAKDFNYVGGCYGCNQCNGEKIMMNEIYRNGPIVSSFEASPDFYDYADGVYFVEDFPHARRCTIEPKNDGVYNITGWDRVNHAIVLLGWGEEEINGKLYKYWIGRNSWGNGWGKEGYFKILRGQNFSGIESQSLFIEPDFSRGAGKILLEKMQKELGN

SMILES | % Inhibition @ 10 uM
COc1nc(Cl)cc(C)c1C(=O)NCc1ccccc1 | 4.81%
O=C(O)CCCn1cc(NC(=O)Cc2ccccc2)cn1 | -2.05%
CCOc1ccc(N2C(=O)/C(=C/c3ccc(C)cc3)C(=O)NC2=S)cc1 | -3.09%
COC(=O)c1c(NC(=O)/C=C/c2ccc(OC)c(OC)c2)sc(C)c1C | -0.148%
COc1cc(C=C2C(=O)OC3(CCCCC3)OC2=O)ccc1OCc1cccc(C(=O)O)c1 | 18.3%
Cc1oc(-c2ccccc2Cl)nc1CSCC(=O)NC1CCCC(C)C1C (centres unmarked) | 3.99%
Cc1cccc(C)c1N(CC(=O)NCCSc1ccccn1)S(C)(=O)=O | 4.75%
CC1=NCCN1S(=O)(=O)c1ccc(Cl)cc1 | -1.96%
COc1ccc(C(=O)/C=C/c2coc3ccc(C)cc3c2=O)cc1 | 4.54%
COc1ccc(-c2nn(CCC(=O)O)cc2/C=C2\SC(N)=NC2=O)cc1OC | 0.778%
COc1ccc(-c2cc(-c3cccs3)nc(SCC(N)=O)c2C#N)cc1OC | 1.02%
COc1cc2c(cc1OC)C(c1cccnc1)N(C)CC2 (centres unmarked) | 4.55%
O=C1N=CC(N2C(=O)c3ccc([N+](=O)[O-])cc3C2=O)C(=O)N1 (centres unmarked) | -12.6%
CCCNC(=O)C1CCCN(c2nnc(C)c3c(C)n(-c4ccccc4)nc23)C1 (centres unmarked) | -4.74%
Cc1ccc2c(CNC3CCCCCCC3)c(C(=O)O)n(C)c2c1 | -4.46%
N#Cc1c(NC(=O)Cn2nc(C(F)F)cc2C(F)F)sc2c1CCCC2 | 3.65%
O=S(=O)(Nc1ccc(Br)c2cccnc12)c1cccc2cccnc12 | -3.66%
CCCOc1ccc(C(O)CCNC(CC(=O)O)c2ccccc2)cc1 (centres unmarked) | -4.75%
Cc1ccc(S(=O)(=O)N2CCCC(C(=O)NC(C)CCc3ccccc3)C2)cc1 (centres unmarked) | -6.56%
CC(C)N1CN(CCc2ccccc2)c2nc3ccccc3n2C1 | 0.221%
O=C(NCc1ccccc1F)c1nc(-c2ccc(Br)o2)no1 | -5.72%
COc1ccc(-c2noc(CNC(=O)c3ccc(Br)o3)n2)cc1 | 0.486%
COc1ccccc1-c1cc(-c2ccccc2)nc(N2CCCCC2)n1 | -3.93%
Cc1ccc(C2c3c(oc4ccccc4c3=O)C(=O)N2c2nncs2)cc1 (centres unmarked) | -5%
Cc1nn(CC(=O)N2CCCCC2)c(=O)c2nccn12 | 21.1%
CC(C)Oc1ccccc1C1C(C#N)=C(N)Oc2[nH]nc(-c3ccccc3)c21 (centres unmarked) | 2.38%

SMILES | % Inhibition @ 10 uM
CCN(CC)CCn1c(=O)n(C)c(=O)c2[nH]cnc21 | -4.82%
CCOC(=O)c1cc2c(=O)n3ccccc3nc2n(CCOC)/c1=N\C(=O)C1CCCCC1 | -0.363%
CC(CNC(=O)CCNS(=O)(=O)c1ccc2nc(O)ccc2c1)c1ccccc1 (centres unmarked) | 2.73%
C1CCc2c(c(N3CCOCC3)nc3sc4c(NCCN5CCOCC5)nnnc4c23)C1 | 2.95%
Cc1ccc(S(=O)(=O)NC(=O)c2ccccc2O)cc1 | 3.72%
CC1(C(=O)O)CC(=O)N=C2C=CC=CN21 (centres unmarked) | 4.26%
COC(=O)c1c(OC)cc(C)nc1C | 4.41%
Cc1nc2ccc(C(=O)N3CCN(c4ccccc4)CC3)cc2s1 | -5.14%
COc1nc(-c2ccc(C)cc2)ccc1-c1noc(C)n1 | 2.1%
CC(C)=C1C2C=CC1C1C(=O)N(c3ccccc3C#N)C(=O)C21 (centres unmarked) | 2.38%
CC(C(=O)O)N1C(=O)CSC1=O (centres unmarked) | 1.72%
CC1(C)CC(=O)C(=Cc2c[nH]c3ccccc23)C(=O)C1 | 0.685%
O=C(Nc1cccc(NC(=O)c2ccc3c(c2)OCO3)n1)c1ccc2c(c1)OCO2 | -1.07%
CCOc1cc(CN2CCN(c3cccc(Cl)c3)CC2)ccc1O | -3.65%
CCOc1ccc(C2(CC(=O)Nc3ccccc3)C(=O)c3ccccc3C2=O)cc1OC | -5.46%
C=C(C)Cn1c(C(C)NC(=O)c2ccccc2OC)nc2ccccc21 (centres unmarked) | 4.77%
c1nc(N2CCCC2)c2c3c(sc2n1)CCCC3 | -3.92%
COc1ccc(N(Cc2ccc(F)cc2)C(=O)c2cccc([N+](=O)[O-])c2)cc1 | -0.0372%
CC(=O)N1CCN(C2CCN(Cc3ccccc3)CC2)CC1 | 0.472%
COc1cccc(C(=O)Nc2cc(Cl)ccc2C)c1 | -1.48%
Cc1cc(C)c(NC(=O)Nc2ccc(Cl)cc2)c(C)c1 | -2.28%
O=C(CCCN1C(=O)c2ccccc2Sc2ncccc21)N1CCN(C2CCCCC2)CC1 | -2.68%
COc1cc(/C=C2\NC(=O)NC2=O)ccc1OCCCOc1ccc(C)cc1C | -7.58%
COc1ccc(CN2CCN(C)CC2)c(C)c1C | 4.67%
COc1cc(NC(=O)c2ccc(Cl)cc2)c(Cl)cc1NC(=O)c1ccccc1-c1ccccc1 | -2.47%
Cc1nn(Cc2cccc(C(=O)NCc3ccc4c(c3)OCO4)c2)c(C)c1Cl | -1.33%

SMILES | % Inhibition @ 10 uM
C=CCOc1ccc(/C=C2\N=C(c3cccs3)OC2=O)cc1OC | -0.357%
CN1CCN(C(=O)/C(=C/c2cccc(F)c2)NC(=O)c2ccccc2Br)CC1 | 1.02%
Cc1ccccc1C1C(C#N)=C(N)N(c2nc[nH]n2)C2=C1C(=O)CCC2 (centres unmarked) | -5.63%
O=C(CCC1CCCC1)Nc1ccc2c(c1)OCO2 | 0.843%
O=C(CN(c1ccc(Cl)c(C(F)(F)F)c1)S(=O)(=O)c1ccccc1)NCc1ccccn1 | 14.7%
O=C(NCCCN1CCOCC1)c1cc(-c2cccc(Br)c2)nc2ccccc12 | 3.65%
CCOCCCNCc1c(C(=O)O)n(Cc2ccccc2F)c2ccccc12 | 3.54%
Cc1c2cnn(CC(=O)N3CCc4ccccc4C3)c(=O)c2c(C)n1Cc1ccccc1 | 4.4%
COc1cc(OC)cc(C2=N/C(=C\c3ccc(C(C)C)cc3)C(=O)O2)c1 | 0.26%
Cc1nn(C(C)C(=O)NCc2cccnc2)c(=O)c2c1sc1ccccc12 (centres unmarked) | -1.03%
CCN(CC)CCN(C)Cc1cccc(Br)c1 | 4.61%
Cc1oc2ccc(O)c(CN3CCOCC3)c2c1C(=O)OCCOc1ccccc1 | -2.99%
O=C(c1cc(S(=O)(=O)N2CCCCC2)c(Cl)cc1Cl)N1CCCCC1 | -2.92%
Cc1cccc(C2C(C#N)=C(N)OC3=C2C(=O)CC(C)(C)C3)c1 (centres unmarked) | -3.13%
Cc1ccc(-c2onc(C)c2C)cc1S(=O)(=O)N(Cc1ccccc1)C(C)C | 2.01%
CS(=O)(=O)N(CC(=O)N1CCCC1)c1ccc(Cl)c(Cl)c1 | 3.29%
CC(C)C[C@H](NC(=O)c1ccc(-c2ccccn2)s1)C(=O)NCC#N | 5.05%
CN(C)Cc1c(O)ccc2c(=O)c(-c3ccc(Cl)cc3)coc12 | -4.11%
CCN(CC)C1CCS(=O)(=O)C1 (centres unmarked) | -0.239%
CC(C)(C)c1[nH]nc2c1C(c1ccc(Br)s1)C(C#N)=C(N)O2 (centres unmarked) | 1.58%
Cc1ccc(C2C3=C(O)CC(C)(C)CC3=Nc3ccccc3N2C(=O)Cc2ccccc2)o1 (centres unmarked) | 7.12%
CCOc1ccc(C(CN)CC(=O)O)cc1 (centres unmarked) | -7.7%
CCCOc1ccccc1C(=O)N(Cc1ccc(C)o1)C1CCS(=O)(=O)C1 (centres unmarked) | -6.5%
CCc1nn2c(=O)c(S(=O)(=O)NCCc3ccccc3)c(C)nc2s1 | -4.47%
CN(CCC#N)S(=O)(=O)c1ccc2ncc(C(=O)O)c(O)c2c1 | -3.35%
N#Cc1cc2c(=O)n3ccccc3nc2n(C2CCCCC2)c1=N | -1.47%

SMILES | % Inhibition @ 10 uM
CN(C)c1nc2c(N)ncnc2n1C1OC(CO)C(O)C1O (centres unmarked) | -2.26%
O=C(O)c1ccccc1S(=O)(=O)CC(=O)N1CCCCC1 | -3.75%
CC(C)NCC(O)COCc1ccccc1 (centres unmarked) | -0.152% and -6.99%
COc1ccc(/C=C2\SC(N3CCc4ccccc4C3)=NC2=O)c(OC)c1 | -0.386%
CC1CCCC(C)N1CCCNc1ccc2nnc(-c3ccccc3)n2n1 (centres unmarked) | 3.45%
CCN1C(=O)NC(=O)/C(=C\c2cn(CC(=O)NCc3ccco3)c3ccccc23)C1=O | 2.17%
Cc1cccn2cc(-c3ccccc3)cc12 | -2.8%
Cc1ccccc1NCN1C(=O)C2C3C=CC(C3)C2C1=O (centres unmarked) | 5.12%
CO/C(O)=C1\C(C)=NC2=C(C(=O)CCC2)C1c1cccc2ccccc12 (centres unmarked) | -1.03%
OCCNCc1cccc(OCc2ccc(Cl)cc2)c1 | -6.02%
CC1=CC(C)(C)Nc2cc(CN(C)C)c(O)cc21 | 0.878%
CCN(CC)C(=O)NCc1noc2ccccc12 | 3.02%
Cc1ccc(C(=O)N2CCC3(CC2)N=C(c2ccccc2)C(=O)N3)cc1 | 4.91%
Cc1ccsc1CN1CCC(O)CC1 | -2.81%
CC[Si](C)(CC)CCCn1c(=O)c2c(nc(NC3CCCCC3)n2C)n(C)c1=O | -5.08%
CCOCCCNC(=O)CCN1N=C(c2ccccc2)CCC1=O | -5.43%
COc1cccc(OCCCN2CCCCC2)c1 | 1.35%
COc1ccc(Cc2nnc3c4cnn(-c5ccccc5)c4ncn23)cc1OC | 2.95%
CC1=CCC2C(=O)N(c3ccc(C#N)c(Cl)c3)C(=O)C2C1 (centres unmarked) | -3.04%
Cc1cc(C)c2c(-n3cccc3)c(C(=O)N(C)Cc3ccccc3)sc2n1 | 6.91%
O=[N+]([O-])c1ccccc1S(=O)(=O)N1CCOCC1 | -1.77%
O=C(c1ccc(CS(=O)c2ccc(Cl)cc2)o1)N1CCN(c2ccccn2)CC1 (centres unmarked) | 3.77%
O=C(NCc1ccccn1)c1ccc2nc(N3CCCCC3)sc2c1 | 1.03%
